Literature values in paper PMC10149103 (Journal of medicinal chemistry, 2022).

System: Swiss Webster mice
Conditions: NLX; cited from earlier work

**Q.** Which “AD50 (95% CL) to antagonize morphine-mediated antinociception” value does the source give for C=CCN1CC[C@]23c4c5ccc(O)c4O[C@H]2C(=O)CC[C@@]3(O)[C@H]1C5 [NLX, naloxone] here?
**A.** Its value is 0.05 (0.03–0.09) mg/kg.
